{
  "source": "ChEMBL document CHEMBL1201862",
  "about": "“PubChem BioAssay data set” (2004)",
  "note": "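Where inhibition never reached the appropriate level, the endpoint shown equals the highest concentration tested. Otherwise, values were interpolated linearly from a five-concentration, 48-hour dose response in 96-well plates. GI50 marks 50% less growth.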 The source made the active and inactive calls. Rule as the data show it: active = GI50 up to about 1.1 µM and inactive = higher.",
  "data": [
    {"test_system": "NCI-H322M", "test": "inhibition of tumour cell growth, NCI panel, 48 h", "values": [
      {"smiles": "Cc1cc(S(=O)(=O)Nc2nnc3cc(C(F)(F)F)cc(C)n23)c(S)cc1Cl", "GI50": "inactive: 27.4 µM"},
      {"smiles": "CN(C)CCCc1cccnc1", "GI50": "inactive: > 100 µM"},
      {"smiles": "Nc1nc(N)c(Cn2ccnc2)c(O)n1", "GI50": "inactive: > 100 µM"},
      {"smiles": "C[C@]12CC[C@@H]3c4ccccc4CC[C@H]3[C@@H]1CC[C@@H]2O", "GI50": "inactive: > 100 µM"},
      {"smiles": "COC(=O)C1=CC2C(=O)OC1CC2C#N", "note": "(configuration not stated)", "GI50": "inactive: > 100 µM"},
      {"smiles": "CC(C)C(=O)Nc1nc2[nH]cnc2c(=O)[nH]1", "GI50": "inactive: > 100 µM"},
      {"smiles": "COC1/C=C/C(C)C(O)CC(O)/C=C/C(C)C(C(C)C(OC)C(C)CCC(=O)C(C)C(C/C=C/N(C)C=O)OC)OC(=O)/C=C/C=C(\\C)CC(OC)CC2=CC(=O)O[C@@H](C(C)C(OC)C1)[C@H]2O", "note": "(some centres not stated)", "GI50": "active: 0.00883 µM"},
      {"smiles": "N#CN1C2CCC1CC(=O)C2", "GI50": "inactive: > 100 µM"},
      {"smiles": "CCCCOCn1c(=O)[nH]c(=O)c2ccccc21", "GI50": "inactive: > 100 µM"},
      {"smiles": "CC1=C(C2=C(C)C(=O)C(=O)c3cc(C)ccc32)c2ccc(C)cc2C(=O)C1=O", "GI50": "inactive: 1.69 µM"},
      {"smiles": "COc1ccc(/C=C/c2sc3ccccc3[n+]2CCCCI)cc1OC", "GI50": "inactive: > 10 µM"},
      {"smiles": "CN(C)CCC(=O)N1C/C(=C\\c2ccc(Cl)c(Cl)c2)C(=O)/C(=C/c2ccc(Cl)c(Cl)c2)C1", "GI50": "active: 0.509 µM"},
      {"smiles": "Cn1c2ccccc2n2c(N=O)c(-c3ccccc3)nc12", "GI50": "inactive: 19.9 µM"},
      {"smiles": "COc1cccc(CC2C(=O)N/C(=N\\C(C)=O)N2C)c1OC(C)=O", "note": "(configuration not stated)", "GI50": "inactive: > 100 µM"},
      {"smiles": "NC(=O)C(=CNC(=S)c1ccncc1)C(N)=O", "GI50": "inactive: > 100 µM"},
      {"smiles": "COC(=O)c1c(O)ccc2c1c1c(n2Cc2ccccc2OC)C(=O)c2ccccc2C1", "GI50": "inactive: > 100 µM"},
      {"smiles": "Cc1c(OCc2cccc3ccccc23)ccc2c(O)cc(=S)oc12", "GI50": "inactive: 31.6 µM"},
      {"smiles": "CC(Br)CN(CC(C)Br)c1ccc2c(c1)Cc1ccccc1-2", "note": "(configuration not stated)", "GI50": "inactive: 15.3 µM"},
      {"smiles": "O=[N+]([O-])/C=C/c1cccc(F)c1", "GI50": "inactive: 15.7 µM"},
      {"smiles": "O=c1onc2c3ccccc3ncn12", "GI50": "inactive: > 100 µM"},
      {"smiles": "Cc1ccc(S(=O)(=O)NC(=O)NCC(=O)O)cc1", "GI50": "inactive: > 100 µM"},
      {"smiles": "O=C(/C=C/c1ccc2ccccc2c1)NCc1ccc(C(=O)NCCc2ccccc2)cc1", "GI50": "inactive: > 100 µM"},
      {"smiles": "NC(=S)N/N=C(/CCN1CCCC1)CC(C1=C(O)C2=CCCCC2OC1=O)c1ccccc1", "note": "(configuration not stated)", "GI50": "inactive: > 100 µM"},
      {"smiles": "OC1CCOc2ccccc21", "note": "(configuration not stated)", "GI50": "inactive: > 100 µM"},
      {"smiles": "CSc1ccc(N2C(=O)C3c4[nH]c5ccccc5c4C4CCC(C(C)(C)C)CC4C3C2=O)cc1", "note": "(configuration not stated)", "GI50": "inactive: 17.3 µM"},
      {"smiles": "Cn1c2ccccc2n2c3ncccc3c(=O)c(C#N)c12", "GI50": "inactive: 22.2 µM"},
      {"smiles": "COc1cc(Br)c(OC)c2c(OC)cc(C)cc12", "GI50": "inactive: > 100 µM"},
      {"smiles": "CCCCCC(=O)OC[n+]1ccc2c(C)c3[nH]c4ccc(OC)cc4c3c(C)c2c1", "GI50": "active: 0.252 µM"},
      {"smiles": "CC1=C(C(=O)CC(=O)C(=O)NC2C3CC4CC(C3)CC2C4)Sc2ccccc2N1", "note": "(configuration not stated)", "GI50": "inactive: > 100 µM"},
      {"smiles": "CCn1c(SCC(=O)NNC(=S)NC)nc2ccccc2c1=O", "GI50": "inactive: > 100 µM"},
      {"smiles": "CCOC(=O)c1ccc(-c2ccc(Cl)cc2)[nH]1", "GI50": "inactive: > 10 µM"},
      {"smiles": "COC(=O)/C=C(\\S/C(=C(/c1ccc(OC)cc1)n1cc(C(=O)OC)c(C(=O)OC)n1)c1ccc(OC)cc1)C(=O)OC", "GI50": "inactive: > 100 µM"},
      {"smiles": "O/N=C1/C(=C/c2ccc(Cl)c(Cl)c2)CCCC1C(NO)c1ccc(Cl)c(Cl)c1", "note": "(configuration not stated)", "GI50": "inactive: 14.4 µM"},
      {"smiles": "CCOP(=O)(Nc1ccccc1P(=O)(OCC)OCC)OCC", "GI50": "inactive: > 100 µM"},
      {"smiles": "Cc1ccc(C(=O)C2C=C(c3ccc(C)cc3)SC3C=CCC32)cc1", "note": "(configuration not stated)", "GI50": "inactive: 27.9 µM"},
      {"smiles": "CCOC(=O)c1c(N2CCCC2)nsc1Nc1ccc(F)cc1", "GI50": "inactive: 75.3 µM"},
      {"smiles": "BrC1(Br)C2/C=C\\CCCCC21", "note": "(configuration not stated)", "GI50": "inactive: > 100 µM"},
      {"smiles": "COC1Cc2c(C)c(OC(C)=O)c3cccnc3c2O1", "note": "(configuration not stated)", "GI50": "inactive: 56.9 µM"},
      {"smiles": "CC(CNC(=O)c1ccccc1)(CNC(=O)c1ccccc1)[N+](=O)[O-]", "GI50": "inactive: > 100 µM"},
      {"smiles": "CCC1(O)CC(c2ccccc2)N(C)C(c2ccccc2)C1", "note": "(configuration not stated)", "GI50": "inactive: > 100 µM"},
      {"smiles": "CCc1c(-c2coc(CC/C(C)=C/c3ccccc3)n2)oc(OC)c(C)c1=O", "GI50": "inactive: > 100 µM"},
      {"smiles": "CCc1nc2c([nH]1)C(=O)c1ccccc1C2=O", "GI50": "inactive: 73.1 µM"},
      {"smiles": "O=C(O)COc1ccc(C(=O)/C(SS/C(C(=O)c2ccc(OCC(=O)O)c(Cl)c2Cl)=C2\\C=C(c3ccc(Cl)cc3)SS2)=C2/C=C(c3ccc(Cl)cc3)SS2)c(Cl)c1Cl", "GI50": "inactive: 92.3 µM"},
      {"smiles": "CCOC1NC(=O)Oc2cc3ccccc3cc21", "note": "(configuration not stated)", "GI50": "inactive: 68.7 µM"},
      {"smiles": "COc1ccc2[nH]c3c(c2c1)CCN(C)CC3", "GI50": "inactive: > 100 µM"},
      {"smiles": "CC(C)OC(=O)OCSc1ccccc1/N=C/c1cccc([N+](=O)[O-])c1", "GI50": "inactive: > 10 µM"},
      {"smiles": "COc1ccc(C(=O)/C=C2\\Nc3cccnc3N\\C2=C/C(=O)c2ccc(OC)cc2)cc1", "GI50": "inactive: 32.6 µM"},
      {"smiles": "O=C(NCCNCCO)c1cccc2ccc(-c3ccccc3)nc12", "GI50": "inactive: 5.4 µM"},
      {"smiles": "COc1ccc(-c2cc(-c3ccc(C)cc3)n(C3OC(COC(C)=O)C(OC(C)=O)C(OC(C)=O)C3OC(C)=O)c(=S)c2C#N)cc1", "note": "(configuration not stated)", "GI50": "inactive: > 100 µM"},
      {"smiles": "CC1(C)NC(C(=O)c2ccccc2)=[N+]([O-])C1(O)c1ccccc1", "note": "(configuration not stated)", "GI50": "inactive: > 100 µM"},
      {"smiles": "CCOC(=O)c1nc2ccc(Cl)cc2c2c1Cc1ccccc1-2", "GI50": "inactive: > 100 µM"},
      {"smiles": "O=C1CN2Cc3cc(N4CCOCC4)ccc3N=C2N1", "GI50": "inactive: 61.9 µM"},
      {"smiles": "CCOC(=O)c1ccc(N2C(=S)N(C(=O)c3ccccc3)C(=N/c3ccccc3)/C2=N\\c2ccccc2)cc1", "GI50": "inactive: > 100 µM"},
      {"smiles": "Nc1nc(-c2ccccc2/N=N/N2CCCC2)nc2ccccc12", "GI50": "inactive: 1.98 µM"},
      {"smiles": "CCC1(CN(C)C)CC/C(=C\\c2ccc3c(c2)OCO3)C1=O", "note": "(configuration not stated)", "GI50": "inactive: > 100 µM"},
      {"smiles": "CC1(C)[C@H]2Cc3cc(-c4cc5c(cn4)[C@@H]4C[C@H]([C@@H]5[C@@H]5c6cc(-c7cc8c(cn7)[C@@H]7C[C@H](C8)C7(C)C)ncc6[C@@H]6C[C@H]5C6(C)C)C4(C)C)ncc3[C@@H]1C2", "GI50": "inactive: > 100 µM"},
      {"smiles": "COC(=O)C1=C(O)C(C(=O)OC)[C@]2(O)[C@H](C(=O)OC)[C@H]1C[C@@H](c1c(Cl)cccc1Cl)[C@H]2C(=O)OC", "note": "(some centres not stated)", "GI50": "inactive: 3.78 µM"},
      {"smiles": "O=C(O)c1ccc(NNC(=O)c2cccc3c(=O)c4ccccc4[nH]c23)cc1", "GI50": "inactive: 71.9 µM"},
      {"smiles": "N#CC1=C(N2CCCC2)NC(=O)CC1=O", "GI50": "inactive: > 100 µM"},
      {"smiles": "O=C1Nc2ccccc2/C1=N/Nc1nc(-c2ccc(Cl)c(Cl)c2)cs1", "GI50": "inactive: > 100 µM"},
      {"smiles": "Nc1nc(N)c2ncn(CCOC(c3ccccc3)P(=O)(O)O)c2n1", "note": "(configuration not stated)", "GI50": "inactive: > 100 µM"},
      {"smiles": "C=C[C@H]1C=Cc2c(OC)cccc2[C@@H]1COP1(=S)NC(C)C(c2ccccc2)O1", "note": "(some centres not stated)", "GI50": "inactive: > 100 µM"},
      {"smiles": "CCOC(=O)N[C@@H]1C(CC(=O)OC)O[C@H]2OC(C)(C)O[C@H]21", "note": "(some centres not stated)", "GI50": "inactive: > 100 µM"},
      {"smiles": "COC(=O)OC[C@H]1O[C@@H](n2cc(C)c(=O)[nH]c2=O)CC1OC(=O)OC", "note": "(some centres not stated)", "GI50": "inactive: > 100 µM"},
      {"smiles": "CC#CC1/C(=C\\C(=O)OC)CCCC1O", "note": "(configuration not stated)", "GI50": "inactive: > 100 µM"},
      {"smiles": "NC(CCP(=O)(O)O)C(=O)O", "note": "(configuration not stated)", "GI50": "inactive: > 100 µM"},
      {"smiles": "CCN(CC)CCCCC1CCN(CC(=O)N2c3ccccc3NC(=O)c3ccccc32)CC1", "GI50": "inactive: 81.8 µM"}
    ]}
  ]
}
